From PubChem BioAssay AID1508623 (National Center for Advancing Translational Sciences (NCATS), 2021)
In all, about 48,000 compounds went through this assay and about 450 (0.94%) were called active. Roughly 19% stayed inconclusive and do not appear here. Calls come from the whole dose curve; as a rule, active = well fitted inhibition curve with a large enough effect; inconclusive = small, poorly fitted or top-dose-only effect; inactive = no such curve, though single readings can be large or run the other way. The list shows a part of the results.

experiment: Primary qHTS for Identification of Small Molecule Inhibitors of Huntingtin Promoter Activity; details: HEK293 HTT promoter firefly luciferase reporter (activity 0% = vehicle and -100% = no light), 24 h; series mostly up to 57.5 µM; activity change, negative = inhibition: at the top concentration; note: nearly all actives have a fitted effect of over 50% in size
Method in brief: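 Firefly luciferase readout (Dual-Glo, 10 min RT) after 24 h, 37 °C compound exposure (final up to 57.5 uM) of HEK293 reporter cells cultured 24 h beforehand; PTC124 at 50 uM final as control inhibitor; activity scaled vehicle 0%, zero RLU -100%.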

Activity change, negative = inhibition, inactive:
COc1cc(OC)c(NC(=O)c2cc(CN3CCOCC3)on2)cc1Cl 1.76%, Cc1ccc(C)c(Cn2c(=O)n(CCCCC(=O)NCc3ccccc3Cl)c(=O)c3ccccc32)c1 2.16%, CCn1ccc2cc(S(=O)(=O)N3CCC(C(=O)NCc4cccc(C)c4)CC3)ccc21 -28.9%, CCOc1ccccc1NC(=O)Cn1ccn(-c2ccccc2)c(=O)c1=O -18.1%, COc1ccccc1N1CCN(c2csc3ccc(Cl)cc3c2=O)CC1 -8.32%, CCCCNC(=O)c1cc(Sc2ccc(OCC)cc2)nc2ccccc12 -18.3%, CCn1cc(C(=O)NCc2ccc(C)cc2)c(=O)c2cc(S(=O)(=O)N3CCC(C)CC3)ccc21 -0.99%, O=C(CN1C(=O)C2CCCCN2c2ccc(C(=O)N3CCCC3)cc21)NCc1cccc(Cl)c1 (stereo unspecified) -49%, CC(=O)[C@H]1CC[C@H]2[C@@H]3C[C@H](C)C4=CC(=O)CC[C@]4(C)[C@H]3[C@@H](O)C[C@]12C -1.77%, Cc1ccc(Cl)c2sc(NC(=O)CS(=O)(=O)c3ccc(Cl)cc3)nc12 -9.79%, CCOc1ccc(CNS(=O)(=O)c2c(C(=O)N3CCCCCC3)c(C)n(C)c2C)cc1OC -2.8%, CCOC(=O)OC(C)OC1=C(C(=O)Nc2ccccn2)N(C)S(=O)(=O)c2ccccc21 (stereo unspecified) 7.42%, Cc1ccc(NC(=O)Nc2nnc(N3CCCC3)s2)c(C)c1 7.47%, COc1ccc(-c2cn3nc(N4CCC(C(=O)Nc5cccc(Cl)c5)CC4)sc3n2)cc1 14.6%, Cc1ccc(CNC(=O)Cc2coc3cc(C)cc(C)c23)cc1 -7.82%, CCCCN(C)C(=O)C1CCCN(c2ncnc3onc(-c4ccc(F)cc4)c23)C1 (stereo unspecified) -22.7%, CCN(CC)S(=O)(=O)c1ccc2c(c1)c(=O)c(C(=O)NCc1ccccc1)cn2C -9.91%, COc1ccc(CNC(=O)CCC(=O)N2CC3CCCN3c3ccccc32)cc1 (stereo unspecified) -1.97%, COc1ccccc1CNC(=O)c1ccc(CS(=O)(=O)c2ccccc2C)o1 -12.9%, COc1cc(CN(CC2CCCO2)C(=O)c2ccc(F)cc2)cc(OC)c1OC (stereo unspecified) -3.46%, CCCNC(=O)c1ccc(-n2c(-c3ccccc3)cc3c2CCCCC3)cc1 12%, COc1ccccc1CNC(=O)C(CC(C)C)NS(=O)(=O)c1ccc2c(c1)oc(=O)n2C (stereo unspecified) -12%, Cn1c(=NC(=O)c2ccc3c(c2)OCCO3)sc2cc(S(C)(=O)=O)ccc21 -12.9%, CCC(=O)N1CCc2cc(S(=O)(=O)NCCC(=O)NCc3ccccc3Cl)ccc21 -8.39%, Cc1ccccc1-c1noc(C(C)NC(=O)c2ccco2)n1 (stereo unspecified) -10.5%, CCOC(=O)c1ccc(NC(=O)C2CCCN(c3ccc(Sc4ccc(C)cc4)nn3)C2)cc1 (stereo unspecified) -26.3%
